For 109 molecules, displacement results are on record in PubChem BioAssay AID1240 (Sanford-Burnham Center for Chemical Genomics, 2008).

“And” between values parts separate entries of the source, which are not always exact repeats. Identical values can stand only once. About 800 (1.6%) of roughly 50,000 compounds showed an effect of 50% or more. The list shows a part of the results.

In the test the target is Bcl-2-like protein 10 (Homo sapiens) (UniProt Q9HD36). The test is described as follows: Phenotype converters, Bcl-B/TR3 peptide binding displacement, primary biochemical FP (AID 1240).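 Note: 0% = Bcl-B with tracer peptide and DMSO and 100% = tracer peptide lacking Bcl-B.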 The conditions noted are these: GST-Bcl-B / FITC-TR3 peptide fluorescence polarization; stronger effect = higher value; compound at 3.75 mg/L. In general terms: Fluorescence polarisation rises when a labelled molecule tumbles more slowly, as on binding a larger partner.
UniProt Q9HD36, sequence (Q9HD36 whole entry, looked up): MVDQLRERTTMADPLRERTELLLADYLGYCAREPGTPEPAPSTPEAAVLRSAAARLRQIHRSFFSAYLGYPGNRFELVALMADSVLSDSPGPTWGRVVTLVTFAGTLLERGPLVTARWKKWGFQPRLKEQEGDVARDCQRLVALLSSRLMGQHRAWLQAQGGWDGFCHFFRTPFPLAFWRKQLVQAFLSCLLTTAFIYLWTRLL
In the case of `O=C(N/C(=C/c1ccc(Br)cc1)C(=O)N1CCOCC1)c1ccccc1`, the displacement is -1.3%. On to `CCN1C(=O)/C(=C\c2ccc(OS(=O)(=O)c3ccccc3[N+](=O)[O-])c(OC)c2)SC1=S`, for which the displacement amounted to 11.4%.

For `CC1=CC(C)(C)N(C(=O)CN2C(=O)C3CCCCC3C2=O)c2cc(C)ccc21` (centres undefined), the displacement is 10%. As for `CC(=O)Nc1ccccc1NC(=O)Cc1cccs1`, the displacement was 5.3%. Take `CC(C)(C)NC(=O)c1cccc(Oc2ccc([N+](=O)[O-])cc2)c1`: the displacement is -2.1%. The figure for `O=C1CC(c2ccc(Cl)cc2)CC2=C1C(c1cc3c(cc1Br)OCO3)Nc1ccccc1N2` (centres undefined) is -6.5%; for `COc1cc(C(=O)N2CCN(Cc3ccccc3)CC2)c([N+](=O)[O-])cc1OC` it is 3.6%; for `CCCCP(=O)(CCCC)CP(=O)(CCCC)CCCC` it is -3.6%. The figure for `N/C(=N\N=C\c1c(O)ccc2ccccc12)c1nonc1N` is 11.1%; for `OCc1nc2ccccc2n1Cc1ccc2ccccc2c1` it is -13.5%; for `Cc1ccnc(NC(=S)NC(=O)c2ccco2)c1` it is 7.3%. As for `Cc1c(NC(=S)NC(NC(=O)c2ccccc2Cl)C(Cl)(Cl)Cl)c(=O)n(-c2ccccc2)n1C` (centres undefined), the figure is 8.9%; as for `FC(F)(F)C(Oc1nc(Nc2ccc(Cl)cc2)nc(N2CCOCC2)n1)C(F)(F)F`, 2.3%.

Consider `CCCCNC(=O)c1c(NC(=O)c2ccccc2)sc(C)c1C`, for which the displacement was 8.5%. The figure for `O=C(O)Cn1c(O)c(C2=c3ccccc3=NC2=O)sc1=S` is 0.7%.

For the molecule `O=Cc1cn[nH]c1-c1ccc(Cl)cc1`, the displacement was -9.1%. With `COCCCNC(=O)c1ccc(CN(c2ccccc2)S(C)(=O)=O)cc1`, the displacement was determined as 13.6%.

Consider `COc1ccc(/C=C/C(=O)NC(=S)NCc2ccccc2)cc1OC`, for which the displacement was -3.1%. As for `CC1(C)CC(n2c(=O)c3c(n4cnnc24)-c2ccccc2CC32CCCCC2)CCO1` (centres undefined), the figure is -8%; as for `O=C1CN2C(=Nc3ccc(Br)cc3C2c2ccccc2)CCN1` (centres undefined), -3.9%. Turning to `CC(C)(C)c1ccc(-c2nnc(-c3ccc(Br)o3)o2)cc1`, the displacement was determined as 2.4%. Consider `CCOc1ccccc1NC(=O)c1cncc(Br)c1`, for which the displacement is 10%. With `COC12CCCCC1OC1(OC)CCCCC1O2` (centres undefined), the displacement stood at 4.6%.

With `Cc1ccc([N+](=O)[O-])cc1N[C@@H]1OC[C@@H](O)[C@H](O)[C@H]1O`, the displacement is -2.2%. The figure for `Cc1cccc(OCC(=O)Nc2cccc(Cl)c2Cl)c1` is 3.2%; for `Cc1cc(NC(=O)/C=C/C(=O)O)ccc1NC(=O)c1cccs1` it is 4.5%; for `COc1cccc(/C=C2/SC(=S)N(CCC(=O)N3c4ccccc4Sc4ccc(Cl)cc43)C2=O)c1` it is 14.4%. Consider `COc1cc(OC)cc(C(=O)Nc2ccc(C)cc2Br)c1`, for which the displacement is -0.3%.

Turning to `CC(=O)c1sc(NC(=O)c2ccc([N+](=O)[O-])s2)nc1-c1ccccc1`, the displacement was determined as 12%. Take `COc1ccc(C2Sc3ccccc3NC3=C2C(=O)c2ccccc23)cc1` (centres undefined): the displacement is -2.8%. Regarding `CC(=O)NC1=NC(=O)/C(=C/c2cc(C)n(-c3ccc(NC(C)=O)cc3)c2C)S1`, the displacement was -32.2%. The figure for `COc1ccc(/C=C2/SC(NC(C)=O)=NC2=O)c(OC)c1` is 133%; for `COc1cc(/C=C2\SC(=Nc3ccc(C)c(Cl)c3)NC2=O)cc(OC)c1OC` it is -14%. On to `COc1ccc(C(=O)N=Nc2c(O)[nH]c3c(C)cc(Br)cc23)cc1`, for which the displacement was 3%. As for `CCOc1ccccc1NC(=O)CN(c1ccc(Br)cc1)S(C)(=O)=O`, the figure is -3.2%. In the case of `C/C(=C1/C(=O)N(c2nc3ccccc3s2)N=C1C(F)(F)F)N1CCCC1`, the displacement was 13%. With `O=C1CSC(c2ccccc2F)N1c1ccccc1` (centres undefined), the displacement was -1.5%.

On to `CC1=CC(=NS(=O)(=O)c2ccc(C)cc2)C=C(C)C1=O`, for which the displacement came to 4.7%.

Turning to `S=c1oc(-c2ccccc2Cl)nn1CN1CCCCC1`, the displacement stood at 40.1%. The figure for `COc1ccc(/C=C2/SC(=S)N(CCC(=O)N3CCN(C4=NC(=O)/C(=C\c5ccc(C)cc5)S4)CC3)C2=O)cc1` is 7.5%; for `COc1ccccc1N1CCN(C(=O)c2cccc(C)c2)CC1` it is -13%. With `COc1ccccc1/C=C1/SC(=S)N(NC(=O)c2ccc(Cl)cc2)C1=O`, the displacement is -61.5%. As for `COc1ccc(C(=O)NCCSCc2ccc(Br)cc2)cc1`, the figure is 3.2%.

For `c1ccc(-c2nnc(-c3ccccn3)nc2-c2ccccc2)cc1`, the displacement was 1.3%.

As for `O=S(=O)(Nc1nc2ccccc2s1)c1cccc2cccnc12`, the displacement is -6.7%.

`CCOc1ccc(-c2cc(C)n3nc(C(=O)Nc4ccc(C(C)=O)cc4)cc3n2)cc1`: the displacement came to 18.2%. The figure for `Cc1ccccc1NC(=O)CC(=O)c1ccccc1` is -11.6%. As for `CC(=O)OC1CCC2(C)C(=CCC3C2CCC2(C)C(C(C)=NO)CCC32)C1` (centres undefined), the figure is 5.3%; as for `COc1ccc(C(=O)Oc2ccc3c4c(c(=O)oc3c2)CCC4)cc1`, -4%. The figure for `Cc1ccc(OCCOc2ccc(C=O)cc2)cc1` is 5.5%; for `Cc1cc2nc(-c3cc(NC(=O)c4ccco4)ccc3O)oc2cc1C` it is 27.7%; for `O=C(Cc1ccccc1)Nc1ccccc1NC(=O)Cc1ccccc1` it is 2.9%. For the molecule `CC(C)C12CN3CC(C(C)C)(CN(C1)C31C(=O)Nc3ccccc31)C2=O` (centres undefined), the displacement is -5.1%.

Take `CN1C(=O)/C(=C\c2ccc(-c3cc(Cl)cc(Cl)c3)o2)SC1=S`: the displacement was 9.6%. As for `CCC(=O)Nc1ccc(NC(=S)NC(=O)c2ccco2)cc1`, the figure is 10%. As for `O=C(CN(c1ccc(Br)cc1)S(=O)(=O)c1ccccc1)Nc1cccc2cccnc12`, the figure is -1.7%; as for `Cc1ccc(S(=O)(=O)N2CCN(S(C)(=O)=O)C2c2ccccc2)cc1` (centres undefined), 9.6%; as for `CC(CN1CCOCC1)C(=O)c1ccccc1` (centres undefined), 10.6%. The figure for `O=C(CSC1CC(=O)N(c2cccc(Br)c2)C1=O)Nc1ccc(Cl)cc1` (centres undefined) is -3.8%.

With `COc1ccccc1C(=O)Nc1nc(-c2ccc(Br)cc2)cs1`, the displacement was -8.5%. Take `c1cc(CNc2ccc(N3CCOCC3)cc2)ccn1`: the displacement turned out to be 15.6%. As to `CCOC(=O)c1sc(NC(=O)COc2ccc(Cl)cc2Cl)c(C(=O)OCC)c1C`, the displacement was -4.7%. Turning to `CC(=O)Nc1ccc(OCC(O)Cn2c3ccccc3c3ccccc32)cc1` (centres undefined), the displacement was -7.3%.

`O=[N+]([O-])c1ccccc1NCCNS(=O)(=O)c1ccccc1`: the displacement came to 13.6%. For `CCOc1ccc(C(=O)N2CCN(c3ccccc3)CC2)cc1`, the displacement is -1.9%. On to `CN(C)S(=O)(=O)N1CCN(c2c(Cl)cccc2[N+](=O)[O-])CC1`, for which the displacement was determined as 0.9%. As for `Cc1ccc(C(=O)N2N=C(c3ccncc3)CC2(O)C(F)(F)F)cc1` (centres undefined), the figure is -4.8%; as for `Cc1cccc(/C=N/NC(=O)Cc2nnc(N)s2)c1`, -0.8%. Take `Cc1cc(C)c(C(N)=O)c(Nc2ccc(Cl)cc2)n1`: the displacement is -24.7%. As to `CCOc1cc(C=C2C(=O)NC(=S)NC2=O)ccc1OCc1ccc(Cl)cc1`, the displacement came out at 7.7%.

As to `COc1ccc(C(=O)/C=C/c2ccccc2[N+](=O)[O-])cc1OC`, the displacement was 2.7%. The figure for `COc1ccc(NC(=O)c2nc[nH]c2C(=O)Nc2ccc(OC)cc2)cc1` is 14.4%; for `COc1ccc(C2=NN(C(C)=O)C(c3ccccc3)C2)cc1` (centres undefined) it is 11.6%; for `COc1ccc(/C=C2\SC(=Nc3cccc(Cl)c3C)NC2=O)cc1C` it is -32.2%. The figure for `CN1CCN(NC(=O)CN2C(=O)/C(=C/c3ccccc3Cl)SC2=S)CC1` is -17.5%; for `Cc1ccccc1NC(=O)c1ccc(OCC(C)C)cc1` it is 5.9%; for `COc1cccc(/C=C2/C(=O)NN(c3ccc(Br)cc3)C2=O)c1` it is 19.9%. As for `COC(=O)C1=C(C)NC(C)=C(C(=O)OC)C1/C=C/c1ccccc1`, the figure is -13.5%; as for `CC(=O)Nc1ccc(S(=O)(=O)NC(C)(C)C)cc1`, -5.4%; as for `C=CCc1ccccc1OCCOc1c(Br)cc(/C=N/n2cnnc2)cc1OC`, 2.9%. For `Cc1cc(=O)[nH]c(SCc2cccc(Oc3ccccc3)c2)n1`, the displacement is -8% and 5.2%. `Cc1ccccc1NC1=C(Cl)C(=O)N(c2cccc(Cl)c2Cl)C1=O`: the displacement worked out at 5.8%. In the case of `COC(=O)CN(c1ccc(OC)cc1)S(=O)(=O)c1ccc(NC(C)=O)cc1`, the displacement was found to be 4.7%.

`O=C(/C=C/c1ccccc1F)c1c(-c2ccccc2)c2cc(Cl)ccc2[nH]c1=O`: the displacement was -26.3%. With `S=C1NC(=S)/C(=C\c2ccc(-c3ccc(Br)cc3)o2)S1`, the displacement is 37.5%.

With `O=C1C(=Cc2cccc(Cl)c2)C(=O)c2ccccc21`, the displacement was determined as 18.1%.

`O=C(COCC(=O)N1CCOCC1)NCC(=O)N1CCOCC1`: the displacement was 2.9%.

As to `N#Cc1ccc(N=Cc2cccc(O)c2O)cc1`, the displacement was -1.9%.

Turning to `COc1cccc(-n2c(O)c(C3=c4cc(Br)ccc4=NC3=O)sc2=S)c1`, the displacement was 8.7%. As for `O=C(CCN1C(=O)/C(=C/c2cccs2)SC1=S)Nc1ccc(F)cc1`, the displacement came out at 10.6%.

In the case of `CCCC(C)NC(=O)c1cc(Cl)ccc1Cl` (centres undefined), the displacement came out at 1.1%. The figure for `COC(=O)Nc1sc2c(c1C(=O)OC)CCCCC2` is 23%; for `Cc1cccc(NC(=O)/C(C#N)=C/c2ccc(-c3ccccc3[N+](=O)[O-])o2)c1` it is 11.1%. As for `Cc1nnc(NS(=O)(=O)c2ccc(F)cc2)s1`, the figure is 7.8%; as for `Cc1cc(C)cc(N2C(=O)NC(=O)/C(=C\c3ccccc3C)C2=O)c1`, 6.3%; as for `C/C(=N\NC(=O)c1ccco1)c1ccc(N)cc1`, -5%. In the case of `O=C(NCCNc1ccc([N+](=O)[O-])cc1)c1cccnc1`, the displacement was -8.5%. In the case of `COc1ccc(OC)c(NC(=O)CN(c2ccc(Br)cc2)S(C)(=O)=O)c1`, the displacement is -12.8%.

For `O=C(Nc1cc(Cl)cc(Cl)c1)c1ccc(-c2ccc([N+](=O)[O-])cc2)o1`, the displacement turned out to be 5.1%. Regarding `CCc1ccc2c(c1)C(O)(CC(=O)c1ccc(Br)cc1)C(=O)N2` (centres undefined), the displacement was -22.7%.

For the molecule `COc1ccc(N=C2C(=O)Nc3ccc(C)c(Br)c32)cc1`, the displacement amounted to 13.6%. In the case of `COc1ccc(NC(=O)c2ccc(N(Cc3ccc(Cl)cc3)S(C)(=O)=O)cc2)c(OC)c1`, the displacement amounted to 26.7%. For `COCCCNS(=O)(=O)c1ccc(F)cc1`, the displacement is 1.6%. As for `Cc1ccc(C)c(N2CC(C(=O)Nc3ccc([N+](=O)[O-])cc3)CC2=O)c1` (centres undefined), the figure is 3.2%; as for `COc1ccc(CNc2ccc(N3CCOCC3)cc2)cc1OC`, 22.7%; as for `C=CCC1(O)CC(c2ccccc2)NC(c2ccccc2)C1C(C)C` (centres undefined), -6.6%. As for `Cc1ccc(N2C(=O)NC(=O)/C(=C\c3ccc(-c4cccc([N+](=O)[O-])c4)o3)C2=O)cc1`, the figure is -5.9%; as for `COc1ccc(S(=O)(=O)N(CCc2ccccc2)CC(=O)NCc2cccnc2)cc1`, -13.2%.

On to `Cc1ccccc1NS(=O)(=O)c1cccc(C(=O)Nc2ccc(Cl)cc2)c1`, for which the displacement was -4.4%.
